Reference: article PMC5640511 (Current Biology, 2017)

Columns and labels:
Assay in all cases: SEC
[1] = molecular target: BubR1 1-571 ΔLL (recombinant, without Bub3) (human, UniProt O60566 1-571, ΔLL (deletion of residues 363–396))
[2] = molecular target: BubR1 1-571 wt (recombinant, without Bub3) (human, UniProt O60566 1-571)
BubR1 1-571 ΔLL/Bub3 = BubR1 1-571 ΔLL/Bub3 (human, UniProt O60566;O43684, ΔLL (deletion of residues 363–396))
BubR1 1-571 wt/Bub3 = BubR1 1-571 wt/Bub3 (human, UniProt O60566;O43684)

Measured: binding result

B1: Mad2 (recombinant) (natural protein)
chain: not shown
binds: all assays above
